In PubChem BioAssay AID360 (National Center for Advancing Translational Sciences (NCATS), 2006):
Hit rate of the full screen: of about 48,000 compounds, about 550 (1.1%) were called active. About 4% were inconclusive and are not listed. Cut-off read from the data, not from the text of the source: active = potency below about 15 µM; inconclusive = mostly about 16 µM to 33 µM; inactive = weaker than that. The list shows a part of the results.
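Note: the screen sought inhibitors.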
Potency is the fitted concentration of half-maximal effect.

The compounds below were run against Lysosomal acid glucosylceramidase (Homo sapiens) (UniProt P04062) (assay: Glucocerebrosidase). Conditions: purified enzyme, resorufin glucoside fluorescence (screen aimed at inhibitors), 20 min.
UniProt P04062, sequence (P04062 whole entry, looked up): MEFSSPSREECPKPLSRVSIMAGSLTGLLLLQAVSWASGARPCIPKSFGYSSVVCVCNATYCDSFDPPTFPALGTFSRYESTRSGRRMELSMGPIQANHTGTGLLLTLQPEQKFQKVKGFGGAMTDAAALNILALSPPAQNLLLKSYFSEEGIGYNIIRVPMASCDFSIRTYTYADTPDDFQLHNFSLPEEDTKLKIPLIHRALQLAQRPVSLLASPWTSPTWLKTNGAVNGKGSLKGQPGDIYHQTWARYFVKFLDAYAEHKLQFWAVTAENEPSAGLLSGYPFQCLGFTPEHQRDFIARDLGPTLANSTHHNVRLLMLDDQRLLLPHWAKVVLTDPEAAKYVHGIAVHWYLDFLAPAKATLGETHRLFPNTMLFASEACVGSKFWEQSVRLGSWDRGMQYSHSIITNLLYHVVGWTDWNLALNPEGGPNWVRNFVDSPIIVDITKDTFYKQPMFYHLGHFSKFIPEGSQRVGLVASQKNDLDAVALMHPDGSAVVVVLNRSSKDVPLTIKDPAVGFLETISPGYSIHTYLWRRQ
Outline: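 Wild-type enzyme at 0.2 nM final in 50mM citric acid/KH2PO4, 10mM sodium taurocholate, 0.01% tween-20, pH 5.9, with resorufin beta-D-glucopyranoside at 30 uM final. Compounds titrated, 20 min at RT, red fluorescence read; AC50 from titration.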
In the case of `O=C(Nc1c(F)cc(F)cc1Br)c1cccnc1`, the Potency is reported as inactive: > 76.9 µM.
For `CNC(=O)N(c1ccccc1)c1ccccc1`, the Potency was inactive: > 76.9 µM.
For `COc1cccc(-n2ccnc2SCC(=O)N2CCc3ccccc32)c1`, the Potency was inactive: > 76.9 µM.
In the case of `COc1cc(COCC(O)CN2CCOCC2)cc(OC)c1OC` (stereo unspecified), the Potency is reported as inactive: > 76.9 µM.
In the case of `Cn1c(=O)c(=O)n(C)c2cc(S(=O)(=O)Nc3ccc4c(c3)OCCO4)ccc21`, the Potency is reported as inactive: > 76.9 µM.
For `CC(C)(C)NC(=O)CSc1nnc(C2CC2)n1Cc1ccccc1`, the Potency was inactive: > 76.9 µM.
For `COC(=O)CN(C(=O)CSc1nnc(-c2cccc(OC)c2)o1)c1ccc(OC)cc1`, the Potency was inactive: > 76.9 µM.
`CC(=O)NC1(c2cccc(F)c2)CCN(CC(=O)NC2CCCCC2)CC1` was tested, and the Potency was inactive: > 76.9 µM.
With `CCCn1c(SCC(=O)Nc2ccccc2C(=O)OC)nc2c1c(=O)n(C)c(=O)n2C` the Potency was inactive: > 76.9 µM.
`N#Cc1cc(C(=O)c2cc(Br)ccc2O)cn(C2CC2)c1=O` was tested, and the Potency was inactive: > 76.9 µM.
In the case of `Cc1cc(C(F)F)n2nc(C(=O)Nc3ccc(S(=O)(=O)N4CCCC4)cc3)nc2n1`, the Potency is reported as inactive: > 76.9 µM.
With `O=C(C(c1ccccc1)c1ccccc1)N1CCN(CC(O)COc2ccccc2)CC1` (stereo unspecified) the Potency was inactive: > 76.9 µM.
For `CCCN1CCN(c2nc3c([nH]2)c(=N)ncn3CC(O)CO)CC1` (stereo unspecified), the Potency was inactive: > 76.9 µM.
For `Nc1nonc1C(=O)NC(c1ccccc1)c1ccccc1`, the Potency was inactive: > 76.9 µM.
`CCOc1cc(C(=O)O)cc(Cl)c1OCC#N` was tested, and the Potency was inactive: > 76.9 µM.
`CC1CN(C(=O)CN2C(=O)NC3(CCCCCCC3)C2=O)CC(C)O1` (stereo unspecified) was tested, and the Potency was inactive: > 76.9 µM.
For `COC(=O)c1c(C(=O)OC)c(C)n(Cc2cccnc2)c1C`, the Potency was inactive: > 76.9 µM.
`CCCn1nnc(NC(=O)C(C)Oc2ccc(Cl)cc2Cl)n1` (stereo unspecified) was tested, and the Potency was inactive: > 76.9 µM.
For `Oc1ccc(Oc2ncc(Cl)cc2Cl)cc1`, the Potency was inactive: > 76.9 µM.
`CCOC(=O)c1cn(CC(=O)Nc2ccccc2C(=O)OCC)nn1` was tested, and the Potency was inactive: > 76.9 µM.
`COc1ccc(NC(=O)C2CCCN2C(=O)NC2CCCCC2)cc1OC` (stereo unspecified) was tested, and the Potency was inactive: > 76.9 µM.
In the case of `CCOC(=O)c1c(N)sc(C(=O)N(C)C)c1C`, the Potency is reported as inactive: > 76.9 µM.
For `COc1ccc(NC(=O)c2oc3ccccc3c2NC(=O)c2ccc3c(c2)OCO3)cc1`, the Potency was inactive: > 76.9 µM.
In the case of `CCC(=O)Nc1nc(C)c(C(=O)N2CCCCC2)s1`, the Potency is reported as inactive: > 76.9 µM.
In the case of `N#CC1=C(N)OC2=C(C(=O)CCC2)C1c1ccc(OC(=O)N2CCOCC2)cc1` (stereo unspecified), the Potency is reported as inactive: > 76.9 µM.
For `CCNC(=O)c1ccccc1-c1nc(-c2ccccc2Cl)no1`, the Potency was inactive: > 76.9 µM.
For `O=C(CSc1ncn[nH]1)Nc1ccc(Br)cc1F`, the Potency was inactive: > 76.9 µM.
With `O=c1[nH]c2ccccc2n1C1=CCCC1` the Potency was inactive: > 76.9 µM.
In the case of `O=C1OCCN1CCN(CN1C(=O)CCC1=O)CN1C(=O)CCC1=O`, the Potency is reported as inactive: > 76.9 µM.
In the case of `CCCCN(CCCC)C(=O)CCS(=O)(=O)c1ccc2c(c1)n(C)c(=O)c(=O)n2C`, the Potency is reported as inactive: > 76.9 µM.
`CC(C)N1C(=S)SC2CS(=O)(=O)C=C21` (stereo unspecified) was tested, and the Potency was inactive: > 76.9 µM.
With `COc1ccc(Cc2nnc(NC(=O)c3ccco3)s2)cc1OC` the Potency was inactive: > 76.9 µM.
For `COc1ccc(CCNC(=O)C(C)OC(=O)c2ccco2)cc1OC` (stereo unspecified), the Potency was inactive: > 76.9 µM.
In the case of `Cc1cnn(Cc2ccccc2)c1N`, the Potency is reported as inactive: > 76.9 µM.
`CC(c1ccccc1)n1cc(C(=O)NCc2ccncc2)nn1` (stereo unspecified) was tested, and the Potency was inactive: > 76.9 µM.
In the case of `COCCNC(=O)C(C)OC(=O)c1cc2occc2n1C` (stereo unspecified), the Potency is reported as inactive: > 76.9 µM.
For `O=C(COc1nncc2ccccc12)NCCC1=CCCCC1`, the Potency was inactive: > 76.9 µM.
With `C=CCn1cnc2c(c1=O)c1nc3ccccc3nc1n2/N=C/c1cccc(OC)c1OC` the Potency was active: 6.6 µM.
For `COc1ccc2[nH]c(=O)c(CN(CC3CCCO3)C(=O)Nc3ccccc3OC)cc2c1` (stereo unspecified), the Potency was inactive: > 76.9 µM.
For `O=C(NCc1ccco1)c1cccc(NC(=O)c2ccccc2)c1`, the Potency was inactive: > 76.9 µM.
In the case of `Cc1ccc2cc(CN(Cc3ccc(F)cc3)Cc3nnnn3C3CCCC3)c(=O)[nH]c2c1`, the Potency is reported as inactive: > 76.9 µM.
With `O=C(NCc1cccs1)C1CCCN(S(=O)(=O)c2ccc(Br)s2)C1` (stereo unspecified) the Potency was inactive: > 76.9 µM.
With `CCN1CCN(Cc2cc(=O)oc3cc(C)cc(C)c23)CC1` the Potency was “inactive”.
In the case of `COC(=O)Cc1c(C)nc2nc(-c3ccc(OC)cc3)[nH]n2c1=O`, the Potency is reported as inactive: > 76.9 µM.
For `O=C1OC(N2CCN(c3ccccn3)CC2)c2ccccc21` (stereo unspecified), the Potency was inactive: > 76.9 µM.
In the case of `C=CCSC1=C(C#N)C(c2ccccc2OC)CC(=O)N1` (stereo unspecified), the Potency is reported as inactive: > 76.9 µM.
